# Some of the results follow.
# B1: Tamarinin (protein)
# chain: CDDSARAGNIVVYWGQGGSDNSEGSLKEACKSGHYNMIVLQQLIVYDDGRDPDLNLGAHCSDCTKLEEQIKYCQNKDIKILLQIGQVVPTQEDVKDVTKNLSEYLLKNFFSGKSGPLGEVYLNGIDIASVPEGNNLKFDELVEALNDSSTERRIYLSASPLCVYPDYYLNKAIQTEKLDFLFVQFFYQNPCIYTEGNPENLFEAMKTWTKNVPESMIFMALPATPNLDGYIPPRVLNKEILPAVSEASNFAGVMIFDRYFDRFRKYSSKIK
# Experiments:
# Assay in all cases: glycan array binding signal (z-score within array); higher = stronger binding
# Details in all cases: glycan notation: IUPAC condensed, linker removed
# [1] = target: Gal(b1-4)GlcNAc(b1-3)Gal(b1-4)GlcNAc(b1-6)[Gal(b1-3)]GalNAc
# Summary of the method: (§1)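 From the Consortium for Functional Glycomics database, 3228 arrays were curated, keeping only those whose protein sequence was available. Binding is given as a within-array Z-score averaged across arrays sharing a protein sequence and across linkers. Negative Z-scores can be read as non-binding.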
# [2] = target: Gal(b1-4)GlcNAc(b1-3)Gal(b1-4)[Fuc(a1-3)]GlcNAc(b1-3)Gal(b1-4)[Fuc(a1-3)]GlcNAc
# Summary of the method: as §1
# [3] = target: Gal(b1-4)GlcNAc(b1-3)GalNAc
# Summary of the method: as §1
# [4] = target: Gal(b1-4)GlcNAc(b1-3)[Fuc(a1-3)GlcNAc(b1-6)]Gal(b1-4)Glc
# Summary of the method: as §1
# [5] = target: Gal(b1-4)GlcNAc(b1-3)[Gal(b1-4)GlcNAc(b1-6)]Gal(b1-4)GlcNAc
# Summary of the method: as §1
# [6] = target: Gal(b1-4)GlcNAc(b1-3)[GlcNAc(b1-6)]Gal(b1-4)GlcNAc
# Summary of the method: as §1
# [7] = target: Gal(b1-4)GlcNAc(b1-6)Gal(b1-4)GlcNAc
# Summary of the method: as §1
# [8] = target: Gal(b1-4)GlcNAc(b1-6)GalNAc
# Summary of the method: as §1
# [9] = target: Gal(b1-4)GlcNAc(b1-6)[Gal(b1-3)]GalNAc
# Summary of the method: as §1
# [10] = target: Gal(b1-4)GlcNAc(b1-6)[Gal(b1-4)GlcNAc(b1-3)]GalNAc
# Summary of the method: as §1
# Gal(b1-4)GlcNAc6P = target: Gal(b1-4)GlcNAc6P
# Summary of the method: as §1
# Gal(b1-6)Gal = target: Gal(b1-6)Gal
# Summary of the method: as §1
# Gal3S(b1-3)GalNAc = target: Gal3S(b1-3)GalNAc
# Summary of the method: as §1
# Gal3S(b1-3)GlcNAc = target: Gal3S(b1-3)GlcNAc
# Summary of the method: as §1
# [11] = target: Gal3S(b1-3)[Fuc(a1-4)]GlcNAc
# Summary of the method: as §1
# Gal3S(b1-4)Glc = target: Gal3S(b1-4)Glc
# Summary of the method: as §1
# Gal3S(b1-4)Glc6S = target: Gal3S(b1-4)Glc6S
# Summary of the method: as §1
# Gal3S(b1-4)GlcNAc = target: Gal3S(b1-4)GlcNAc
# Summary of the method: as §1
# [12] = target: Gal3S(b1-4)[Fuc(a1-3)]Glc6S
# Summary of the method: as §1
# [13] = target: Gal3S(b1-4)[Fuc(a1-3)]GlcNAc
# Summary of the method: as §1
# [14] = target: Gal3S(b1-4)[Fuc(a1-3)]GlcNAc6S
# Summary of the method: as §1
# Gal3S4S(b1-4)GlcNAc = target: Gal3S4S(b1-4)GlcNAc
# Summary of the method: as §1
# Gal3S6S(b1-4)GlcNAc = target: Gal3S6S(b1-4)GlcNAc
# Summary of the method: as §1
# Gal3S6S(b1-4)GlcNAc6S = target: Gal3S6S(b1-4)GlcNAc6S
# Summary of the method: as §1
# Gal4S(b1-4)GlcNAc = target: Gal4S(b1-4)GlcNAc
# Summary of the method: as §1
# Gal4S6S(b1-4)GlcNAc = target: Gal4S6S(b1-4)GlcNAc
# Summary of the method: as §1
# Gal6P(b1-4)GlcNAc = target: Gal6P(b1-4)GlcNAc
# Summary of the method: as §1
# Gal6S(b1-3)GlcNAc = target: Gal6S(b1-3)GlcNAc
# Summary of the method: as §1
# Gal6S(b1-3)GlcNAc6S = target: Gal6S(b1-3)GlcNAc6S
# Summary of the method: as §1
# Gal6S(b1-4)Glc = target: Gal6S(b1-4)Glc
# Summary of the method: as §1
# Gal6S(b1-4)Glc6S = target: Gal6S(b1-4)Glc6S
# Summary of the method: as §1
# Gal6S(b1-4)GlcNAc = target: Gal6S(b1-4)GlcNAc
# Summary of the method: as §1
# Gal6S(b1-4)GlcNAc6S = target: Gal6S(b1-4)GlcNAc6S
# Summary of the method: as §1
# GalNAc(a1-3)Gal = target: GalNAc(a1-3)Gal
# Summary of the method: as §1
# GalNAc(a1-3)GalNAc = target: GalNAc(a1-3)GalNAc
# Summary of the method: as §1
# [15] = target: GalNAc(a1-3)GalNAc(b1-3)Gal(a1-4)Gal(b1-4)Glc
# Summary of the method: as §1
# [16] = target: GalNAc(a1-3)GalNAc(b1-3)Gal(a1-4)Gal(b1-4)GlcNAc
# Summary of the method: as §1
binder,measurement,setting,value
B1,glycan array binding signal (z-score),[1],-0.014
same,glycan array binding signal (z-score),[2],-0.173
same,glycan array binding signal (z-score),[3],-0.386
same,glycan array binding signal (z-score),[4],-0.345
same,glycan array binding signal (z-score),[5],-0.421
same,glycan array binding signal (z-score),[6],-0.194
same,glycan array binding signal (z-score),[7],-0.431
same,glycan array binding signal (z-score),[8],0.245
same,glycan array binding signal (z-score),[9],-0.304
same,glycan array binding signal (z-score),[10],-0.282
same,glycan array binding signal (z-score),Gal(b1-4)GlcNAc6P,-0.209
same,glycan array binding signal (z-score),Gal(b1-6)Gal,0.305
same,glycan array binding signal (z-score),Gal3S(b1-3)GalNAc,-0.036
same,glycan array binding signal (z-score),Gal3S(b1-3)GlcNAc,0.068
same,glycan array binding signal (z-score),[11],-0.217
same,glycan array binding signal (z-score),Gal3S(b1-4)Glc,-0.021
same,glycan array binding signal (z-score),Gal3S(b1-4)Glc6S,-0.234
same,glycan array binding signal (z-score),Gal3S(b1-4)GlcNAc,-0.251
same,glycan array binding signal (z-score),[12],-0.238
same,glycan array binding signal (z-score),[13],-0.314
same,glycan array binding signal (z-score),[14],-0.281
same,glycan array binding signal (z-score),Gal3S4S(b1-4)GlcNAc,0.071
same,glycan array binding signal (z-score),Gal3S6S(b1-4)GlcNAc,-0.214
same,glycan array binding signal (z-score),Gal3S6S(b1-4)GlcNAc6S,-0.445
same,glycan array binding signal (z-score),Gal4S(b1-4)GlcNAc,-0.322
same,glycan array binding signal (z-score),Gal4S6S(b1-4)GlcNAc,-0.333
same,glycan array binding signal (z-score),Gal6P(b1-4)GlcNAc,0.286
same,glycan array binding signal (z-score),Gal6S(b1-3)GlcNAc,-0.187
same,glycan array binding signal (z-score),Gal6S(b1-3)GlcNAc6S,0.14
same,glycan array binding signal (z-score),Gal6S(b1-4)Glc,-0.253
same,glycan array binding signal (z-score),Gal6S(b1-4)Glc6S,-0.122
same,glycan array binding signal (z-score),Gal6S(b1-4)GlcNAc,0.523
same,glycan array binding signal (z-score),Gal6S(b1-4)GlcNAc6S,-0.214
same,glycan array binding signal (z-score),GalNAc(a1-3)Gal,-0.183
same,glycan array binding signal (z-score),GalNAc(a1-3)GalNAc,-0.405
same,glycan array binding signal (z-score),[15],-0.418
same,glycan array binding signal (z-score),[16],-0.138

# — the supplement of paper PMC8728848
